Data reported in the supplement of paper PMC8728848.
The other results are listed elsewhere or left out.

Assays:
Test in all cases: glycan array binding signal (z-score within array); higher = stronger binding
Settings in all cases: glycan notation: IUPAC condensed, linker removed
[1] = target: Gal(b1-4)GlcNAc(b1-3)GalNAc
Outline: (§1)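 Glycan array data came from 3228 arrays in the Consortium for Functional Glycomics database, and only arrays with an available protein sequence were kept. Glycan names were put into IUPAC-condensed notation, and columns mapping to the same glycan were averaged. The binding signal is a within-array Z-score, averaged across arrays of one protein sequence run at different concentrations or buffers and across linkers. A negative Z-score can be read as non-binding.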

[2] = target: Gal(b1-4)GlcNAc(b1-3)[Gal(b1-4)GlcNAc(b1-6)]GalNAc
Outline: as §1

[3] = target: Gal(b1-4)GlcNAc(b1-6)Gal(b1-4)GlcNAc(b1-6)GalNAc
Outline: as §1

[4] = target: Gal(b1-4)GlcNAc(b1-6)GalNAc
Outline: as §1

[5] = target: Gal(b1-4)GlcNAc(b1-6)[Gal(b1-3)]GalNAc
Outline: as §1

Gal3S(b1-3)GalNAc = target: Gal3S(b1-3)GalNAc
Outline: as §1

Gal3S(b1-3)GlcNAc = target: Gal3S(b1-3)GlcNAc
Outline: as §1

[6] = target: Gal3S(b1-3)[Fuc(a1-4)]GlcNAc
Outline: as §1

Gal3S(b1-4)Glc = target: Gal3S(b1-4)Glc
Outline: as §1

Gal3S(b1-4)Glc6S = target: Gal3S(b1-4)Glc6S
Outline: as §1

Gal3S(b1-4)GlcNAc = target: Gal3S(b1-4)GlcNAc
Outline: as §1

Gal3S(b1-4)GlcNAc6S = target: Gal3S(b1-4)GlcNAc6S
Outline: as §1

Gal3S6S(b1-4)GlcNAc = target: Gal3S6S(b1-4)GlcNAc
Outline: as §1

Gal3S6S(b1-4)GlcNAc6S = target: Gal3S6S(b1-4)GlcNAc6S
Outline: as §1

Gal4S(b1-4)GlcNAc = target: Gal4S(b1-4)GlcNAc
Outline: as §1

Gal4S6S(b1-4)GlcNAc = target: Gal4S6S(b1-4)GlcNAc
Outline: as §1

Gal6S(b1-4)Glc = target: Gal6S(b1-4)Glc
Outline: as §1

Gal6S(b1-4)Glc6S = target: Gal6S(b1-4)Glc6S
Outline: as §1

Gal6S(b1-4)GlcNAc = target: Gal6S(b1-4)GlcNAc
Outline: as §1

GalNAc(a1-3)Gal = target: GalNAc(a1-3)Gal
Outline: as §1

GalNAc(a1-3)GalNAc = target: GalNAc(a1-3)GalNAc
Outline: as §1

[7] = target: GalNAc(b1-3)Gal(a1-4)Gal(b1-4)GlcNAc
Outline: as §1

GalNAc(b1-3)GalNAc = target: GalNAc(b1-3)GalNAc
Outline: as §1

GalNAc(b1-4)GlcNAc = target: GalNAc(b1-4)GlcNAc
Outline: as §1

Glc(a1-4)Glc = target: Glc(a1-4)Glc
Outline: as §1

Glc(a1-6)Glc(a1-6)Glc = target: Glc(a1-6)Glc(a1-6)Glc
Outline: as §1

Glc(b1-4)Glc = target: Glc(b1-4)Glc
Outline: as §1

Glc(b1-6)Glc = target: Glc(b1-6)Glc
Outline: as §1

GlcA(b1-3)Gal = target: GlcA(b1-3)Gal
Outline: as §1

GlcA(b1-6)Gal = target: GlcA(b1-6)Gal
Outline: as §1

[8] = target: GlcNAc(a1-3)Gal(b1-4)GlcNAc
Outline: as §1

[9] = target: GlcNAc(a1-6)Gal(b1-4)GlcNAc
Outline: as §1

[10] = target: GlcNAc(b1-2)Gal(b1-3)GalNAc
Outline: as §1

[11] = target: GlcNAc(b1-2)Man(a1-3)[GlcNAc(b1-2)Man(a1-6)]Man(b1-4)GlcNAc(b1-4)GlcNAc
Outline: as §1

GlcNAc(b1-3)Gal = target: GlcNAc(b1-3)Gal
Outline: as §1

[12] = target: GlcNAc(b1-3)Gal(b1-3)GalNAc
Outline: as §1

GlcNAc(b1-3)Gal(b1-4)Glc = target: GlcNAc(b1-3)Gal(b1-4)Glc
Outline: as §1

[13] = target: GlcNAc(b1-3)Gal(b1-4)GlcNAc
Outline: as §1

[14] = target: GlcNAc(b1-3)Gal(b1-4)GlcNAc(b1-3)Gal(b1-4)GlcNAc
Outline: as §1

GlcNAc(b1-3)GalNAc = target: GlcNAc(b1-3)GalNAc
Outline: as §1

[15] = target: GlcNAc(b1-3)[GlcNAc(b1-6)]Gal(b1-4)GlcNAc
Outline: as §1

[16] = target: GlcNAc(b1-3)[GlcNAc(b1-6)]GalNAc
Outline: as §1

[17] = target: GlcNAc(b1-3)[GlcNAc(b1-6)]GlcNAc(b1-4)GlcNAc
Outline: as §1

[18] = target: GlcNAc(b1-4)Gal(b1-4)GlcNAc
Outline: as §1

[19] = target: GlcNAc(b1-4)GlcNAc(b1-4)GlcNAc
Outline: as §1

[20] = target: GlcNAc(b1-4)GlcNAc(b1-4)GlcNAc(b1-4)GlcNAc(b1-4)GlcNAc
Outline: as §1

[21] = target: GlcNAc(b1-4)GlcNAc(b1-4)GlcNAc(b1-4)GlcNAc(b1-4)GlcNAc(b1-4)GlcNAc
Outline: as §1

[22] = target: GlcNAc(b1-4)[GlcNAc(b1-6)]GalNAc
Outline: as §1

[23] = target: GlcNAc(b1-6)Gal(b1-4)GlcNAc
Outline: as §1

GlcNAc(b1-6)GalNAc = target: GlcNAc(b1-6)GalNAc
Outline: as §1

Kdn(a2-3)Gal(b1-3)GlcNAc = target: Kdn(a2-3)Gal(b1-3)GlcNAc
Outline: as §1

Kdn(a2-3)Gal(b1-4)GlcNAc = target: Kdn(a2-3)Gal(b1-4)GlcNAc
Outline: as §1

[24] = target: Man(a1-2)Man(a1-2)Man(a1-3)Man
Outline: as §1

[25] = target: Man(a1-2)Man(a1-2)Man(a1-6)[Man(a1-3)]Man
Outline: as §1

Man(a1-2)Man(a1-3)Man = target: Man(a1-2)Man(a1-3)Man
Outline: as §1

[26] = target: Man(a1-2)Man(a1-3)[Man(a1-2)Man(a1-6)]Man
Outline: as §1

[27] = target: Man(a1-2)Man(a1-3)[Man(a1-2)Man(a1-6)]Man(a1-6)[Man(a1-2)Man(a1-2)Man(a1-3)]Man(b1-4)GlcNAc(b1-4)GlcNAc
Outline: as §1

[28] = target: Man(a1-2)Man(a1-3)[Man(a1-6)]Man(a1-6)[Man(a1-2)Man(a1-3)]Man(b1-4)GlcNAc(b1-4)GlcNAc
Outline: as §1

[29] = target: Man(a1-2)Man(a1-6)[Man(a1-3)]Man(a1-6)[Man(a1-2)Man(a1-2)Man(a1-3)]Man(b1-4)GlcNAc(b1-4)GlcNAc
Outline: as §1

Man(a1-3)[Man(a1-6)]Man = target: Man(a1-3)[Man(a1-6)]Man
Outline: as §1

[30] = target: Man(a1-3)[Man(a1-6)]Man(a1-6)[Man(a1-2)Man(a1-3)]Man(b1-4)GlcNAc(b1-4)GlcNAc
Outline: as §1

[31] = target: Man(a1-3)[Man(a1-6)]Man(a1-6)[Man(a1-3)]Man(b1-4)GlcNAc(b1-4)GlcNAc
Outline: as §1

[32] = target: Man(a1-3)[Man(a1-6)]Man(b1-4)GlcNAc(b1-4)GlcNAc
Outline: as §1

Man(b1-4)GlcNAc = target: Man(b1-4)GlcNAc
Outline: as §1

Neu5Ac(a2-3)Gal = target: Neu5Ac(a2-3)Gal
Outline: as §1

[33] = target: Neu5Ac(a2-3)Gal(b1-3)GalNAc
Outline: as §1

[34] = target: Neu5Ac(a2-3)Gal(b1-3)GalNAc(b1-3)Gal(a1-4)Gal(b1-4)Glc
Outline: as §1

[35] = target: Neu5Ac(a2-3)Gal(b1-3)GalNAc(b1-3)Gal(b1-4)GlcNAc
Outline: as §1

[36] = target: Neu5Ac(a2-3)Gal(b1-3)GalNAc(b1-4)[Neu5Ac(a2-3)]Gal(b1-4)Glc
Outline: as §1

[37] = target: Neu5Ac(a2-3)Gal(b1-3)GalNAc6S
Outline: as §1

[38] = target: Neu5Ac(a2-3)Gal(b1-3)GlcNAc
Outline: as §1

[39] = target: Neu5Ac(a2-3)Gal(b1-3)GlcNAc6S
Outline: as §1

[40] = target: Neu5Ac(a2-3)Gal(b1-3)[Fuc(a1-4)]GlcNAc
Outline: as §1

[41] = target: Neu5Ac(a2-3)Gal(b1-3)[Fuc(a1-4)]GlcNAc(b1-3)Gal(b1-4)[Fuc(a1-3)]GlcNAc
Outline: as §1

[42] = target: Neu5Ac(a2-3)Gal(b1-3)[Neu5Ac(a2-3)Gal(b1-4)]GlcNAc
Outline: as §1

Measured: glycan array binding signal (z-score)

B1: PA-IL (Pseudomonas aeruginosa) (protein)
chain: AWKGEVLANNEAGQVTSIIYNPGDVITIVAAGWASYGPTQKWGPQGDREHPDQGLICHDAFCGALVMKIGNSGTIPVNTGLFRWVAPNNVQGAITLIYNDVPGTYGNNSGSFSVNIGKDQS
1.6: GalNAc(a1-3)Gal
0.323: [2]
1.89: GalNAc(a1-3)GalNAc
-0.219: [4]
-0.364: [6] | Gal3S(b1-4)Glc | Gal3S6S(b1-4)GlcNAc6S | Gal6S(b1-4)Glc6S | [11] | [15] | [29] | [41]
-0.309: [12]
-0.354: [23]
-0.357: [27]
-0.248: [24]
0.234: [3]
-0.361: Gal6S(b1-4)GlcNAc
-0.363: [9] | [16]
-0.355: [1]
0.192: [5]
-0.306: [7]
-0.365: all other assays above
